Source: PubChem BioAssay AID504832 (National Center for Advancing Translational Sciences (NCATS), 2011)
Hit rate of the full screen: of about 310,000 compounds, about 18,000 (5.8%) were called active. Inconclusive means that the source gave no clear call. Such entries were picked first, then a sample of the others. Calls come from the whole dose curve; as a rule, active = well fitted inhibition curve with a large enough effect; inconclusive = small, poorly fitted or top-dose-only effect, or another doubt; inactive = no such curve, though single readings can be large or run the other way. Potencies of inconclusive entries are left out as doubtful fits.

test: Primary qHTS for delayed death inhibitors of the malarial parasite plastid, 48 hour incubation; conditions: P. falciparum luciferase growth in erythrocytes; series mostly up to 28.7 µM; activity change, negative = inhibition: at the top concentration
Procedure, shortened: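 Luminescence readout; reporter = integrated firefly luciferase in P. falciparum. RBC culture at 2% hematocrit, 0.1% parasitemia final, 37 C/5% CO2; decreased signal taken as growth inhibition.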
% is set by controls: 0 for no effect and ±100 for the full control effect; potency is the fitted concentration of half-maximal effect; tags give direction and shape of the fitted curve.

| Compound | Potency | activity change, negative = inhibition |
| --- | --- | --- |
| COc1ccc(F)cc1C(=O)C1CCCN(Cc2cccn2-c2ccccn2)C1 (configuration not stated) | active: 10.4 µM |  |
| CC1CC(C)CN(C(=O)COC(=O)c2ccc([N+](=O)[O-])o2)C1 (configuration not stated) |  | inactive: -29.4% |
| COc1ccc(Nc2nc(N)c(C(=O)c3ccc(OC)cc3)s2)cc1 | inconclusive [inhibitor, single point] |  |
| COc1cc2cc(C(c3nnnn3C3CCCCC3)N(C)C3CCCCC3)c(=O)[nH]c2cc1OC (configuration not stated) | active: 5.86 µM |  |
| Cc1cccc(Nc2nc(N)nc(CN3CCN(Cc4ccc5c(c4)OCO5)CC3)n2)c1 | inconclusive [inhibitor, single point] |  |
| COc1cc(CNCCN(C)C)c(Br)cc1OC1CCCC1 | inconclusive [inhibitor, full curve, poor fit] |  |
| CCOC(=O)N1CCC(NC(=O)c2cc(C)c3c(C)nn(-c4ccccc4)c3n2)CC1 | inconclusive [inhibitor, single point] |  |
| CCc1nnc(NC(=O)CSc2ccc(-c3nc4ccc(C)cc4[nH]3)cn2)s1 |  | inactive: 81% |
| CCCN(C(=O)c1cc(C)ccc1C)c1c(N)n(Cc2ccccc2)c(=O)[nH]c1=O | inconclusive [inhibitor, single point] |  |
| COc1cc(C#Cc2c(-c3cncn3C)n(C)c3ccc(-c4cnc(OC)nc4)cc23)cc(OC)c1 | inconclusive [inhibitor, full curve] |  |
| NC(=O)C1CCN(C(=O)N2c3ccccc3Sc3ccccc32)CC1 | inconclusive [inhibitor, single point] |  |
| COc1ccc(C2NC3=C(CCCC3)C(C#N)(C#N)C2(C#N)C#N)cc1 (configuration not stated) | inconclusive [inhibitor, single point] |  |
| CCc1ccc(/C=C2/Sc3ccccc3N(CC(=O)NCCCOC)C2=O)cc1 | inconclusive [inhibitor, single point] |  |
| Cc1onc(-c2ccccc2)c1C(=O)NC(=S)NNC(=O)c1ccc(O)cc1 | inconclusive [inhibitor, single point] |  |
| CCOc1ccc(C(O)(c2ccccc2OC)C(CN2CCCC2)c2ccccc2)cc1 (configuration not stated) | inconclusive [inhibitor, single point] |  |
| CCOc1cccc2c1OC1(C)CC2NC(=O)N1c1cccc(Cl)c1 (configuration not stated) | inconclusive [inhibitor, partial curve, poor fit] |  |
| Cc1ccc(C)c(OCC(=O)Nc2ccc(N3CCOCC3)cc2N2CCOCC2)c1 | inconclusive [inhibitor, single point] |  |
| CC1(C)Cc2c(sc3ncnc(NN)c23)CO1 |  | inactive: -11.4% |
| COc1ccc(-c2cc(C(F)(F)F)nc(SCC(=O)N3CC(C)OC(C)C3)n2)cc1OC (configuration not stated) |  | inactive: -17.7% |
| Nc1ccc(C(=O)Nc2ccc(Nc3ccncc3)cc2)cc1 | inconclusive [inhibitor, full curve, poor fit] |  |
| COc1cccc(OC)c1C(=O)NC(=S)N1CCCCC1c1cccnc1 (configuration not stated) | inconclusive [inhibitor, single point] |  |
| CCCNC(=O)c1ccccc1NC(=O)CN(c1ccccc1OCC)S(C)(=O)=O | inconclusive [inhibitor, single point] |  |
| N#CC1=C2N=C(N)c3c(sc4c3CCCCC4)N2C2=C(C(=O)CCC2)C1c1ccccc1 (configuration not stated) | active: 2.94 µM |  |

| Compound | Potency | activity change, negative = inhibition |
| --- | --- | --- |
| Cc1ccc(NCc2nnc(SCc3ccc(C#N)cc3)n2Cc2ccco2)c(C)c1 | inconclusive [inhibitor, single point] |  |
| COc1ccc(OC)c(C2N(c3ccc(Cl)cc3)C(=O)C3CCCN32)c1 (configuration not stated) |  | inactive: -2.38% |
| CCC(NC(=O)CCC(=O)N1CCN(S(=O)(=O)c2ccc(C)cc2)CC1)c1ccc(C)cc1 (configuration not stated) | inconclusive [inhibitor, single point] |  |
| CCC(c1nnc(SCC(=O)Nc2ccc(N3CCOCC3)cc2)n1Cc1ccccc1)N(C)C (configuration not stated) | inconclusive [inhibitor, partial curve, poor fit] |  |
| CC(SCc1ccccc1)C(=O)N/N=C/c1ccc2c(c1)OCO2 (configuration not stated) |  | inactive: -9.94% |
| Cc1ccc2c(c1)c1c(n2CC(O)CN2CCCCC2C)CCCC1 (configuration not stated) | inconclusive [inhibitor, single point] |  |
| COCCn1c(=NC(=O)/C=C/c2ccccc2)sc2cc(NC(C)=O)ccc21 | inconclusive [inhibitor, single point] |  |
| COCC(C)n1c(C)cc(C(=O)COC(=O)CNC(=O)c2ccccc2)c1C (configuration not stated) |  | inactive: 29.9% |
| CCCCNC(=O)c1cn(CC)c2ccc(S(=O)(=O)N3CCCC3)cc2c1=O | inconclusive [inhibitor, full curve, poor fit] |  |
| COc1ccc(CN(C)C(=O)CCN(c2ccccc2)S(=O)(=O)c2ccc(C)cc2)c(OC)c1 | inconclusive [inhibitor, partial curve, poor fit] |  |
| CC(=O)Nc1ccc(S(=O)(=O)Nc2cccc(C(=O)Nc3ccccc3C(=O)O)c2)cc1 |  | inactive: 41.2% |
| Cc1cc(Nc2cccc([N+](=O)[O-])c2)c2cccc(C)c2n1 | inconclusive [inhibitor, single point] |  |
| CCC(CC)C(=O)N1CC(=O)Nc2ccc(C)cc2C1c1ccccc1 (configuration not stated) | inconclusive [inhibitor, full curve, poor fit] |  |
| O=C(CCS(=O)(=O)c1ccccc1Cl)NCc1ccc(F)cc1 | inconclusive [inhibitor, partial curve, poor fit] |  |
| COc1ccc(-c2nc(N)nc(C(F)(F)F)c2-c2ccccc2OC)c(O)c1 | inconclusive [inhibitor, partial curve] |  |
| COC1=C(OC)C(=O)C(CCCCCCCCCCO)=C(C)C1=O | inconclusive [inhibitor, single point] |  |
| Cc1sc2nc(CN3CCOCC3)[nH]c(=S)c2c1C | inconclusive [inhibitor, single point] |  |
| O=C1Nc2cc(S(=O)(=O)N3CCCC3)ccc2N2CCCC12 (configuration not stated) | active: 16.5 µM |  |
| O=C(CCCN=C1NS(=O)(=O)c2ccccc21)OCC(=O)c1ccccc1Cl | inconclusive [inhibitor, partial curve, poor fit] |  |
| C=CCNc1nc(-c2sc(NC(C)=O)nc2C)cs1 | inconclusive [inhibitor, single point] |  |
| CCOc1ccccc1NC(=O)NCc1cccnc1 | inconclusive [inhibitor, partial curve, poor fit] |  |
| O=S(=O)(c1ccc(F)cc1)N1CCN(c2ncccn2)CC1 | active: 2.08 µM |  |
| CC(=O)c1c(C)[nH]c(C(=O)CSc2nnc(C3CCCCC3)n2N)c1C | active: 2.08 µM |  |

| Compound | Potency | activity change, negative = inhibition |
| --- | --- | --- |
| COc1cccc(C=Nc2ccc(N3CCOCC3)cc2)c1O |  | inactive: -2.18% |
| CN(C)c1cc(-c2ccc(Cl)cc2)oc(=O)c1Cl | inconclusive [inhibitor, partial curve, poor fit] |  |
| CCN(CCC(=O)Nc1cc([N+](=O)[O-])ccc1OC)Cc1ccccc1 |  | inactive: -27.9% |
| FC(F)(F)c1nnc2c(Sc3ccc(Cl)cc3)nc3ccccc3n12 | inconclusive [inhibitor, single point] |  |
| C=CCN(CC=C)C(=O)C1CCN(S(=O)(=O)c2ccc(-n3cnnn3)cc2)CC1 |  | inactive: 2.03% |
| Cc1ccc(S(=O)(=O)NCC(=O)OCCOc2cccc(Cl)c2)cc1 |  | inactive: -19.6% |
| O=C(C1=C[C@H](c2ccc3c(c2)OCO3)C[C@H](OCCCCO)O1)N1CCN(Cc2ccc3c(c2)OCO3)CC1 | inconclusive [inhibitor, full curve, poor fit] |  |
| CCN(CC)S(=O)(=O)c1ccc(N2CCOCC2)c(NC(=O)Cc2ccccc2F)c1 | inconclusive [inhibitor, single point] |  |
| CC(=O)c1ccc(OCc2cc(C(=O)N3CCC(Oc4ccccc4C)CC3)no2)cc1 | inconclusive [inhibitor, full curve, poor fit] |  |
| CC(c1nc2ccccc2c(=O)[nH]1)N(C)c1ccc2ccccc2c1 (configuration not stated) | active: 6.57 µM |  |
| COc1ccc(CCNC(=O)COc2cc(C)cc3oc(=O)cc(C)c23)cc1OC | inconclusive [inhibitor, single point] |  |
| COc1ccc(S(=O)(=O)N2CCCCC2)cc1N(C)S(=O)(=O)c1ccccc1 |  | inactive: -27.1% |
| CC(C)(C)c1ccc(/C=N/NC(=S)NC2CCCCC2)cc1 | inconclusive [inhibitor, single point] |  |
| CC(C)c1ccc(NC(=S)N2CCN(S(=O)(=O)c3ccccc3)CC2)cc1 | inconclusive [inhibitor, single point] |  |
| C1CCCN(CCCCN2CCCCCC2)CC1 | inconclusive [inhibitor, single point] |  |
| COc1cc(C#CC#CCN2CCCCC2)ccc1O | active: 8.28 µM |  |
| Cc1c(C=O)c2ccccn2c1C(=O)c1ccc(F)cc1 | inconclusive [inhibitor, partial curve, poor fit] |  |
| O=C(c1ccc(CS(=O)(=O)c2cccc(C(F)(F)F)c2)o1)N1CCN(c2ccccn2)CC1 | inconclusive [inhibitor, single point] |  |
| Cc1cc(C)c(NC(=S)N(CCCN2CCOCC2)Cc2cccnc2)c(C)c1 |  | inactive: -12.5% |
| CC(C)OP(=O)(Oc1ccc(C(O)C(Cl)(Cl)Cl)cc1)OC(C)C (configuration not stated) | inconclusive [inhibitor, partial curve] |  |
| COc1cccc(CNC(=O)c2cccnc2Sc2ccc(Cl)cc2)c1 |  | inactive: -4.1% |
